B1: LINE1-full (parent)
chain: UACGUAGGUGGUUUUCCCCUGAUAGUGCUAAGGGGGCCUGGAAGUUUGGACUGGGCAGAGCUCAACACAGCGUGGCAAAGUGGCUGUGGCUAGACUGCCUCUCUGGAUUCCUCGUCACUCAGCAGGGCAUCUCUGAGAGAAAUGCC

The source gives no read counts; variants with many changes may rest on few reads.

The variants in the data set derive from B1. The experiment in a line: self-cleavage, relative activity (ratio to wild type); higher = more cleavage; in vitro, sequencing; the parent is a self-cleaving ribozyme.
For UACGUAGGUGGUUUUCCCCUGAUAGUGCUAAGGGGGCCUGGAAGUUUGGUCUGGGCGGAGCUCAACACAGCGUAGCAAAGUGGCUGUGGCUAGACUGCCUCUCUGGAUUCCUCGUCACUCAGCAGGGCAUCUCUGAGAGAAAUGCC [A50U A57G G74A], the self-cleavage was 0.32.

On to UACGUAGGUGGUUUUCCCCUGAUAGUGCUAAGGGGGCCUGGAAGUUUGGUCUGGGCGGAGCUCAACACAGCGUGGCAAAGUGGCUGUGGCUAGACUGCCUCUCUGGAUUCCUCGUCGCUCAGCAGGGCAUCUCUGAGAGAAAUGCC [A50U A57G A117G], for which the self-cleavage is 0.18.

UACGUAGGUGGUUUUCCCCUGAUAGUGCUAAGGGGGCCUGGAAGUUUGGGCUGGGCAGAGCUCAACACAGCGCGGCAAAGUGGCUGUGGCUAGACUGCCUCUCUGGAUUCCUCGUCACUCAGCAGUGCAUCUCAGAGAGAAAUGCC [A50G U73C G126U U134A]: the self-cleavage is 1.57.

Take UACGUAGGUGGUUUUCCCCUGAUAGUGCUAAGGGGGCCUGGAAGUUUGGUCUGGGCAGAGCUCAACACAGCGUGGCAGAGUGGCUGUGGCUAGUCUGCCUCUCUGGAUUCCUCGUCACUCAGCAGGGCAUCUCGGAGAGAAAUGCC [A50U A78G A94U U134G]: the self-cleavage worked out at 0.09.

For UACGUAGGUGGUUUUCCCCUGAUAGUGCUAAGGGGGCCUGGAAGUUUGGGCCGGGCAGAGCUCAACUCAGCGUGGCAAAGUGGCUGUGGCUAGACUGCCUCUCUGGAUUCCUCGUCACUCAGCAGGGCAUCUCUGAGAGAAAUGCC [A50G U52C A67U], the self-cleavage was determined as 0.14.

Consider UACGUAGGUGGUUUUCCCCUGAUAGUGCUAAGGGGGCCUGGAAGUUUGGGCUGGGCAGAGCUCAACACAGCGUGGCAAAGUGGCUGUGGCUAGACCGCCUCUCUGGAUUCCUCGUCACCCAGCAGGGCAUCUCUGAGAGAAAUGCC [A50G U96C U119C], for which the self-cleavage came to 0.

On to UACGUAGGUGGUUUUCCCCUGAUAGUGCUAAGGGGGCCUGGAAGUUUGGGCUGGGCAGAGCUCAACACAGCGAGGCAAAGCGGCUGUGGCUAGACUGCCUCUCUGGAUUCCUUGUCACUCAGCAGGGCAUCUCUGAGAGAAAUGCC [A50G U73A U81C C113U], for which the self-cleavage was found to be 0.21.

Take UACGUAGGUGGUUUUCCCCUGAUAGUGCUAAGGGGGCCUGGAAGUUUGGUCUGGGCAGAGCUCAACACGGCGUGGCAAAGUGGCUGUGGCCAGACUGCCUCUCUGGAUUCCUCGUCACUCAGCAGGGCAUCUCUGAGAGAAAUGCC [A50U A69G U91C]: the self-cleavage is 0.1.

Regarding UACGUAGGUGGUUUUCCCCUGAUAGUGCUAAGGGGGCCUGGAAGUUUGGGCUGGGCAGAGCCCAACACAGCGUGGCAAAGUGGCUGUGGCUAGACUGCCUCUCUGGAUUCCUCGUCACUCAGCAGGGCAUCUCUGAGAGAGACGCC [A50G U62C A141G U143C], the self-cleavage came to 0.34.

In the case of UACGUAGGUGGUUUUCCCCUGAUAGUGCUAAGGGGGCCUGGAAGUUUGGGCUGGGCAGAGCUCAACACAGCGUGGCAAAGAGGCUGUGGCUAGACUGCCUCCCUGGAUUCCCCGUCACUCAGCAGGGCAUCUCUGAGAGAAAUGCC [A50G U81A U102C U112C], the self-cleavage is 2.66.

UACGUAGGUGGUUUUCCCCUGAUAGUGCUAAGGGGGCCUGGAAGUUUGGUCUGGGCAGAGCUCAACACAGCGUGGCAAAGUGGCUGUGGCUAGACUGCCUCUCUGGAUUCCUCGUCCCUCAGCAGGUCAUCUCUGAGGGAAAUGCC [A50U A117C G127U A138G]: the self-cleavage was found to be 1.57.

UACGUAGGUGGUUUUCCCCUGAUAGUGCUAAGGGGGCCUGGAAGUUUGGGCUGGGCAGAGCUCAACACAGCGUGGCAAAGUGGCUGUGGCUAGACUGCCACUCCGGAUUCCUCGUCACUCAGCAGGGCAUCUCUGAGAGAAAUGCC [A50G U100A U104C]: the self-cleavage was 2.21.

UACGUAGGUGGUUUUCCCCUGAUAGUGCUAAGGGGGCCUGGAAGUUUGGUCUGGGCAGAGCUCGACACAGCGUGGCAAAGUGGCUGUGGCUAGUCUGCCUCUCUGGGUUCCUCGUCACUCAGCAGGGCAUCUCUGAGAGAAGUGCC [A50U A64G A94U A107G A142G]: the self-cleavage was determined as 0.13.

As for UACGUAGGUGGUUUUCCCCUGAUAGUGCUAAGGGGGCCUGGAAGUUUGGGCUGGGCAGAGCUCAACACAGCGUGGCAAAGUGGCUGUGGCUAGACUGCCUCUCUGGAUUCCUCGUCACUCAGCAGGGCAUCACAGAGAGAAAUGCC [A50G U132A U134A], the self-cleavage came out at 0.84.

Turning to UACGUAGGUGGUUUUCCCCUGAUAGUGCUAAGGGGGCCUGGAAGUUUGGUCUGGGCAGAGCUCAGCUCAGCGUGGCAAAGUGGCUGUGGCUAGACUGCCUCUCUGGAUUCCUCGUCACUCAGCAGGGCAUCUCUGAGAGGAAUGCC [A50U A65G A67U A140G], the self-cleavage is 0.

With UACGUAGGUGGUUUUCCCCUGAUAGUGCUAAGGGGGCCUGGAAGUUUGGGCUGGGCAGAGCUCAACACAGCGAGGCAAAGUGGCUGUGGCUAGACUGCCUCUCUGGAUUCCUCGUCACUCAGCAGGGCAUCUCUGAGAGAGAUGCC [A50G U73A A141G], the self-cleavage worked out at 0.97.

Regarding UACGUAGGUGGUUUUCCCCUGAUAGUGCUAAGGGGGCCUGGAAGUUUGGUCUGGGCAGAGCUCAACUCAGCGUGGCAAAGUGGCUGUGGCUAGACUGCCUCUCUGGACUCCUCGUCACUCAGCAGGGCAUCUCUGAGAGAAGUGCC [A50U A67U U108C A142G], the self-cleavage stood at 0.09.

As for UACGUAGGUGGUUUUCCCCUGAUAGUGCUAAGGGGGCCUGGAAGUUUGGGCAGGGCAGAGCUCAACACAGCGUGGCAAAGUGGCUGUGGCUAGACUGCCUCUCUGGAUUCCUCGUCACACAGCAGGGCAUCUCUGAGAGAAAUGCC [A50G U52A U119A], the self-cleavage worked out at 0.53.

As for UACGUAGGUGGUUUUCCCCUGAUAGUGCUAAGGGGGCCUGGAAGUUUGGGCUGGGCAGAGCUCAACACAGCGUGGCAAAGUGGCUGAGGCUGGACUGCCUCUCUGGAUUCCUCGUCACUCAGCAGGGCAUCUCUGAGAGAGAUGCC [A50G U87A A92G A141G], the self-cleavage was determined as 0.26.

Turning to UACGUAGGUGGUUUUCCCCUGAUAGUGCUAAGGGGGCCUGGAAGUUUGGUCUGGGCAGAGCUCAACACAGCGUGGCGAAGUGGCUGAGGCUAGACCGCCUCUCUGGAUUCCUCGUCACUCAGCAGGGCAUCUCUGAGAGAAAUGCC [A50U A77G U87A U96C], the self-cleavage worked out at 0.

Values taken from the RNAGym collection of RNA variant scans (doi:10.7554/elife.90254).
